According to PubChem BioAssay (NCATS):
The shares of active, inactive and inconclusive entries below differ from those in the screen. For part of these data: Where the call is inconclusive, the potency comes from a doubtful curve fit. Activity calls are given as the source filed them. Unless noted, calls come from the whole dose curve; as a rule, active = well fitted curve in the direction sought with a large enough effect; inconclusive = small, poorly fitted or top-dose-only effect, or another doubt; inactive = no such curve, though single readings can be large; an effect the other way counts as inactive or inconclusive.

Assays:
[1] = P-glycoprotein substrates identified in KB-8-5-11 adenocarcinoma cell line, qHTS therapeutic library screen (AID 1346987); note: nearly all actives have a fitted effect of over 65% in size; note: potency is the fitted concentration of half-maximal effect
Summary of the method: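 Human cervical adenocarcinoma KB-8-5-11 cells, selected in colchicine to over-express P-gp and assayed without it, were exposed for 72 h to titrated compounds. An ATP-based luminescent viability signal gave AC50.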

[2] = Primary qHTS for inhibitors of nuclear receptor binding SET domain protein 2 (NSD2) in an RCH-ACV wild type WT cells (2C) (AID 1645877); conditions: activity change, negative = cell killing: at 44.9 µM (top of the series) unless noted; note: potency is the fitted concentration of half-maximal effect; nearly all actives have a fitted effect of over 70% in size
HEK293 = experiment: Cytotoxic Profiling of Annotated Libraries Using Quantitative High-Throughput Screening (AID 1296008); conditions: Five cell lines viability, CellTiter-Glo ATP luminescence, 48-72 h; max response: stronger effect = lower value; note: nearly all actives have a fitted effect of over 60% in size; note: potency is the fitted concentration of half-maximal effect; for max response: % is set by controls: 0 for no effect and ±100 for the full control effect
Summary of the method: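 Cytotoxicity was measured as CellTiter-Glo ATP luminescence, read after 10 min at room temperature. Compound treatment of the cells lasted 48 or 72 hr at 37 degrees Celsius in a qHTS format.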

Tov112D = experiment: Primary qHTS to identify gynecologic anti-cancer compounds using libraries of approved drugs and bioactive compounds (AID 1345084); conditions: Gynecologic cancer cell panel viability, ATPlite luminescence, 48 h; series mostly up to 57.5 µM; note: nearly all actives have a fitted effect of over 55% in size; note: potency is the fitted concentration of half-maximal effect
Summary of the method: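 Cells, 1,000 per well, were allowed to settle for 16 h at 37 C before compound addition. Five concentrations were tested for 48 h, and viability was read by ATPlite luminescence after 15 min at room temperature.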

[3] = qHTS Assay for Identifying Gametocytocidal Compounds (AID 743244); note: potency is the fitted concentration of half-maximal effect; conditions: P. falciparum 3D7 stage III-V gametocytes, alamarBlue, 72 h; max response: stronger effect = lower value
Summary of the method: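 P. falciparum 3D7 stage III–V gametocytes (20,000 cells/well) were exposed to compounds for 72 h at 37 °C, 5% CO2. AlamarBlue was then added for 24 h; decreased resorufin fluorescence (Ex 525/Em 598 nm) indicated loss of viability.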

[4] = qHTS of pediatric cancer cell lines to identify multiple opportunities for drug repurposing: Primary screen for NB-EBc1 cells (AID 1347095);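 note: plate controls were DMSO neutral control for no effect and bortezomib for full effect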
Summary of the method: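 Plated cells (500-1,000 per well, growth media) were allowed to settle for 5 hours, treated with compound dilutions for 48 hours, then lysed with CellTiter-Glo for 15 min at room temperature before luminescence reading.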

[5] = qHTS of pediatric cancer cell lines to identify multiple opportunities for drug repurposing: Primary screen for LAN-5 cells (AID 1347100); note: potency is the fitted concentration of half-maximal effect
Summary of the method: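 Cells (500-1,000/well) rested 5 h, then received compounds for 48 h; metabolically active cells were measured by CellTiter-Glo luminescence. Final concentrations spanned up to 46 µM (MIPE, 11-point) or 0.59 nM-46 µM (NPC, 8-point) in primary screens, 11-point in follow-ups.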

[6] = target: Calcium and integrin-binding protein 1 (Homo sapiens) (UniProt Q99828); experiment: Primary qHTS for Identification of Calcium Integrin Binding Protein 1 (CIB1) Competitor (AID 1508620); note: potency is the fitted concentration of half-maximal effect
UniProt Q99828, sequence (Q99828 whole entry, looked up): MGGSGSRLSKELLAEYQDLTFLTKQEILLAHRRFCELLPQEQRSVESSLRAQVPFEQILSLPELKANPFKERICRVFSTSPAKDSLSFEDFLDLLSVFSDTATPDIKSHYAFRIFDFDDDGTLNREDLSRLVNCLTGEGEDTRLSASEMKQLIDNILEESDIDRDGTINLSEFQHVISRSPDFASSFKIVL
Summary of the method: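 CIB1-GST (1 uM final) and compound incubated 15 min at room temperature before adding FITC-alphaIIb peptide tracer (100 nM final). Competition for binding read by fluorescence polarization (ex 480, em 540) after another 15 min at room temperature.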

[7] = Counterscreen qHTS for small molecule stabilizers of the endoplasmic reticulum resident proteome: GLuc-NoTag assay (AID 1508627);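 note: SH-SY5Y cells given compound then 100 nM thapsigargin to empty ER calcium; 0% = thapsigargin alone and -100% = DMSO vehicle control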
Summary of the method: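 Counterscreen line: SH-SY5Y-GLuc-NoTag cells, treated with compound 19 hr before a 4 hr, 100 nM thapsigargin calcium depletion. Secreted Gaussia luciferase in the medium was measured by luminescence after coelenterazine was added (0.07x final), with cells unlysed.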

[8] = Confirmatory qHTS for small molecule stabilizers of the endoplasmic reticulum resident proteome: Secreted ER Calcium Modulated Protein (SERCaMP) assay (AID 1508628); note: % is set by controls: 0 for no effect and ±100 for the full control effect; nearly all actives have a fitted effect of over 40% in size
Summary of the method: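 GLuc-SERCaMP-expressing SH-SY5Y cells, pretreated 16 h with compound, are challenged with thapsigargin to empty ER calcium stores; after 4 h, coelenterazine is added directly to the medium and luminescence is imaged.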

[9] = Cell Viability qHTS for small molecule stabilizers of the endoplasmic reticulum resident proteome (AID 1508629); conditions: cell viability counter-screen, 100 nM thapsigargin for final 4 h;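 note: potency is the fitted concentration of half-maximal effect; compound exposure about 46 h in total before the viability read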
[10] = Primary qHTS for small molecule stabilizers of the endoplasmic reticulum resident proteome: Secreted ER Calcium Modulated Protein (SERCaMP) assay (AID 1508630); conditions: SH-SY5Y GLuc-SERCaMP (Gaussia luciferase released on ER calcium loss) secretion, thapsigargin, luminescence; activity change, negative = inhibition: at 38.4 µM (top of the series) unless noted; note: potency is the fitted concentration of half-maximal effect
Summary of the method: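 The SH-SY5Y reporter protocol was run at 3 concentrations up to 38.3 uM (primary) or 11 concentrations (follow-up): 16 h compound, 100 nM thapsigargin for 4 h, then extracellular luciferase luminescence.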

[11] = A High-Content qHTS Against Drug Library for the Identification of Small Molecules that Inhibit DYT1 Early Onset Primary Dystonia-Associated Cell Pathology (AID 1645839; calls by dose curve; note: potency is the fitted concentration of half-maximal effect)
Summary of the method: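 High-content imaging quantified EGFP-TorsinA mislocalization in HEK293-derived cells inducibly expressing DYT1 mutant torsinA, after 48 h exposure to compound given together with tetracycline induction. Cell count served as a toxicity channel alongside %pathology.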

[12] = tested on: Zika virus NS2B-NS3 protease (unlinked complex); experiment: Primary screen GU Rhodamine qHTS for Zika virus inhibitors: Unlinked NS2B-NS3 protease assay (AID 1347159); note: potency is the fitted concentration of half-maximal effect; nearly all actives have a fitted effect of over 60% in size
Summary of the method: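 Enzyme 25 nM in Tris-HCl pH 8.0 + 0.01% Tween 20; compounds up to 114 microM, 15 min RT dark; + Rhod110 substrate 1.5 microM; read t0 and 15 min; delta fluorescence → % inhibition → 4-parameter Hill fit.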

[13] = Tertiary RLuc qRT-PCR qHTS assay for Zika virus inhibitors (AID 1347169); note: top concentration of the series differs between compounds; % is set by controls: 0 for no effect and ±100 for the full control effect; nearly all actives have a fitted effect of over 55% in size
Summary of the method: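 Luminescence read-out: live-cell Renilla luciferase substrate applied to infected Vero cells, signal measured after 1-1.5 hrs. Cells had received compound before ZIKV-RLuc (Cambodian strain, MOI 1-2) infection and were incubated 48-72 hrs at 37 degrees C.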

[14] = Primary qHTS for inhibitors of nuclear receptor binding SET domain protein 2 (NSD2) in an isogenic RCH-ACV NSD2 p.E1099K mutant (9B) (AID 1645876); note: nearly all actives have a fitted effect of over 70% in size; note: potency is the fitted concentration of half-maximal effect
[15] = Primary redox qHTS assay for identification of artifact compounds. (AID 1845223); conditions: Amplex Red/HRP redox cycling with DTT, fluorescence; redox activity (% of DA3003): at 53.8 µM (top of the series);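 note: 0% = DMSO and 100% = reference compound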
Summary of the method: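 Redox-cycling detection via DTT (250 uM final) oxidation coupled to Amplex Red (25 uM)/HRP (250 mU/mL) in HBSS. 15 min preincubation plus 30 min after DTT, room temperature. Ex/Em 525/598 nm; 4-parameter Hill fit against DMSO and 10 uM DA3003.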

[16] = target: Luciferin 4-monooxygenase (Photinus pyralis) (UniProt P08659); experiment: Primary firefly luciferase (FLuc) qHTS assay for identification of artifact compounds. (AID 1845220);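 note: plate controls were DMSO vehicle for no effect and no enzyme for full effect; nearly all actives have a fitted effect of over 60% in size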
Summary of the method: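 FLuc 10 nM; luciferin 10 uM; ATP 10 uM; Tris-acetate pH 7.6, Mg-acetate 10 mM; 15 min RT preincubation; 5 min reaction; luminescence.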
Tags give direction and shape of the fitted curve.

C[C@@]12C(=O)N(c3ccc(C(=O)Nc4cccc5cccnc45)cc3)C(=O)[C@@H]1[C@@H]1C=C[C@H]2C1
inconclusive: Potency [2] 18.3 µM [inhibitor, partial curve, poor fit] | Potency (HEK293) 25.9 µM [inhibitor, single point] | Potency (Tov112D) 0.224 µM [rising, full curve, poor fit]
inactive: Potency [1]

CCCCCCCCCCCCCCC[C@H](O)[C@@H](N)CO
inconclusive: Potency [3] 35.5 µM [inhibitor, single point] | Potency [1] 23.1 µM [inhibitor, single point] | Potency [5] 33.5 µM [cytotoxic, single point] | Potency [6] 100 µM [inhibitor, partial curve, poor fit] | Potency [9] 0.141 µM [rising, full curve, poor fit] | Potency [10] 3.16 µM [inhibitor, full curve, poor fit] | Potency [11] 11.2 µM [inhibitor, partial curve, poor fit] | Potency (HEK293) 23.7 µM [inhibitor, single point]
inactive: Potency [4] | Potency [7] | Potency [8]
active: Potency [2] 5.96 µM

C=C1CC23CCC4[C@@](C)(CCC[C@@]4(C)C(=O)O)C2CCC1C3 (stereo partly drawn)
active: Potency [12] 20 µM
inactive: Potency [1] | Potency [13] | Potency [14] | Potency [15] | outcome (HEK293)

C=C(C)C1Cc2c(ccc3c2OCC(c2ccc(O)cc2O)C3)O1 (stereo not drawn)
inactive: Potency [1] | Potency [16] | max response (HEK293) -18.8%
inconclusive: Potency [12] 35.5 µM [inhibitor, partial curve] | Potency [14] 10.1 µM [inhibitor, partial curve, poor fit] | Potency [2] 3.19 µM [inhibitor, partial curve, poor fit]

O=C(CSc1nc2ccccc2c(=O)n1-c1ccccc1)Nc1ccc2c(c1)CCC2
inactive: Potency [1] | Potency (Tov112D)
inconclusive: Potency [14] 18.3 µM [inhibitor, single point] | Potency [2] 18.3 µM [inhibitor, single point] | Potency (HEK293) 29.1 µM [inhibitor, single point]
